Assay results as given in the supplement of paper PMC4967469.
A lower IC50 marks a more sensitive line; where the fit passes the top or lowest dose, that dose stands as a limit. The AUC spans the tested range (256-fold, ending at the top dose) of the same fit; the more sensitive the line, the further below 1. For some of these results: Any top dose called inferred was derived from the fitted curves, not read from the paper. For some of these results: Where an entry number is given, a second screen of the drug exists; the two often differ.

Key:
Experiment in all cases: Viability of human cancer cell lines after 72 h of drug (GDSC screen)
MG-132 = compound: CC(C)C[C@@H](C=O)NC(=O)[C@H](CC(C)C)NC(=O)[C@H](CC(C)C)NC(=O)OCc1ccccc1 [MG-132]; settings: top dose 1 µM
Protocol: (§1)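 Human cancer cell lines in 384-well plates, medium with 10% serum, drug for 72 h over a 256-fold dose range (nine 2-fold or five 4-fold steps up to the top dose). Adherent lines were fixed and stained with the nucleic acid dye Syto60, suspension lines read with resazurin; signal relative to control wells, capped at 0 and 100%. One two-parameter sigmoid per drug and line, fitted in a mixed model over all curves with the slope shared within a line.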

AR-42 = compound: CC(C)[C@H](C(=O)Nc1ccc(C(=O)NO)cc1)c1ccccc1 [AR-42]; settings: top dose 5.12 µM; top dose inferred
Protocol: as §1

GDC0941 = compound: CS(=O)(=O)N1CCN(Cc2cc3nc(-c4cccc5[nH]ncc45)nc(N4CCOCC4)c3s2)CC1 [GDC0941]; settings: top dose 4 µM; screen: GDSC drug entry 1527; top dose inferred
Protocol: as §1

CEP-701 = compound: C[C@]12O[C@H](C[C@]1(O)CO)n1c3ccccc3c3c4c(c5c6ccccc6n2c5c31)CNC4=O [CEP-701]; settings: top dose 2 µM; top dose inferred
Protocol: as §1

Pazopanib = compound: Cc1ccc(Nc2nccc(N(C)c3ccc4c(C)n(C)nc4c3)n2)cc1S(N)(=O)=O [Pazopanib]; settings: top dose 8 µM
Protocol: as §1

SB 216763 = compound: Cn1cc(C2=C(c3ccc(Cl)cc3Cl)C(=O)NC2=O)c2ccccc21 [SB 216763]; settings: top dose 10 µM; top dose inferred
Protocol: as §1

Cell Line | AUC (MG-132) | IC50 (MG-132) | AUC (AR-42) | IC50 (AR-42) | AUC (GDC0941) | IC50 (GDC0941) | AUC (CEP-701) | IC50 (CEP-701) | AUC (Pazopanib) | IC50 (Pazopanib) | AUC (SB 216763) | IC50 (SB 216763)
NCI-H1155 (large cell lung carcinoma, suspension) | 0.876 | 694 nM | 0.524 | 368 nM | 0.973 | > 4000 nM | 0.708 | 426 nM | 0.984 | > 8000 nM | 0.991 | > 10000 nM
NCI-H1395 (lung adenocarcinoma, adherent) | 0.972 | > 1000 nM | 0.76 | 2370 nM | 0.788 | 2410 nM | 0.535 | 161 nM | 0.961 | > 8000 nM | 0.96 | > 10000 nM
NCI-H1436 (small cell lung carcinoma, suspension) | 0.909 | > 1000 nM | 0.601 | 631 nM | 0.684 | 883 nM | 0.956 | > 2000 nM | 0.97 | > 8000 nM | 0.985 | > 10000 nM
NCI-H1581 (large cell lung carcinoma, semi-adherent) | 0.912 | > 1000 nM | 0.424 | 202 nM | 0.957 | > 4000 nM | 0.788 | 800 nM | 0.879 | 7080 nM | 0.99 | > 10000 nM
NCI-H1648 (lung adenocarcinoma, adherent) | 0.893 | > 1000 nM | 0.477 | 276 nM | 0.612 | 518 nM | 0.944 | > 2000 nM | 0.978 | > 8000 nM | 0.961 | > 10000 nM
NCI-H1666 (lung adenocarcinoma, semi-adherent) | 0.958 | > 1000 nM | 0.649 | 863 nM | 0.565 | 384 nM | 0.857 |  | 0.987 | > 8000 nM | 0.986 | > 10000 nM
NCI-H1694 (small cell lung carcinoma, suspension) | 0.956 | > 1000 nM | 0.42 | 194 nM | 0.823 | 2340 nM | 0.736 | 587 nM | 0.98 | > 8000 nM | 0.989 | > 10000 nM
NCI-H1838 (lung adenocarcinoma, adherent) | 0.986 | > 1000 nM | 0.922 | > 5120 nM | 0.903 | > 4000 nM | 0.891 | > 2000 nM | 0.983 | > 8000 nM | 0.942 | > 10000 nM
NCI-H1869 (lung squamous cell carcinoma, adherent) | 0.762 | 402 nM | 0.692 | 1200 nM | 0.902 | > 4000 nM | 0.888 | > 2000 nM | 0.981 | > 8000 nM | 0.984 | > 10000 nM
NCI-H1876 (small cell lung carcinoma, adherent) | 0.834 | 660 nM | 0.611 | 647 nM | 0.749 | 1310 nM | 0.778 | 818 nM | 0.957 | > 8000 nM | 0.986 | > 10000 nM
NCI-H2081 (small cell lung carcinoma, suspension) | 0.902 | > 1000 nM | 0.78 | 2230 nM | 0.986 | > 4000 nM | 0.803 | 1060 nM | 0.984 | > 8000 nM | 0.986 | > 10000 nM
NCI-H2141 (small cell lung carcinoma, suspension) | 0.838 | 646 nM | 0.705 | 1190 nM | 0.905 | > 4000 nM | 0.904 | > 2000 nM | 0.991 | > 8000 nM | 0.991 | > 10000 nM
NCI-H2227 (small cell lung carcinoma, semi-adherent) | 0.817 | 657 nM | 0.29 | 74.7 nM | 0.74 | 1350 nM | 0.688 | 453 nM | 0.981 | > 8000 nM | 0.985 | > 10000 nM
NCI-SNU-1 (stomach, suspension) | 0.968 | > 1000 nM | 0.539 | 410 nM | 0.953 | > 4000 nM | 0.939 | > 2000 nM | 0.987 | > 8000 nM | 0.986 | > 10000 nM
NCI-SNU-5 (stomach, suspension) | 0.866 | 914 nM | 0.811 | 2760 nM | 0.65 | 656 nM | 0.823 | 1200 nM | 0.986 | > 8000 nM | 0.989 | > 10000 nM
NH-12 (neuroblastoma, adherent) | 0.971 | > 1000 nM | 0.27 | 64.4 nM | 0.853 | 3730 nM | 0.553 | 177 nM | 0.9 | > 8000 nM | 0.897 | > 10000 nM
NMC-G1 (glioma, adherent) | 0.821 | 759 nM | 0.707 | 1420 nM | 0.807 | 2630 nM | 0.668 |  | 0.784 | 4230 nM | 0.854 | > 10000 nM
NOS-1 (osteosarcoma, adherent) | 0.852 | > 1000 nM | 0.382 | 141 nM | 0.716 | 1190 nM | 0.761 | 863 nM | 0.568 | 802 nM | 0.969 | > 10000 nM
OCI-AML2 (acute myeloid leukaemia, suspension) | 0.741 | 244 nM | 0.326 | 120 nM | 0.937 | 3990 nM | 0.37 | 60.5 nM | 0.969 | > 8000 nM | 0.995 | > 10000 nM
OCI-AML5 (acute myeloid leukaemia, suspension) | 0.87 | 793 nM | 0.271 | 76.6 nM | 0.755 | 1250 nM | 0.554 | 173 nM | 0.97 | > 8000 nM | 0.989 | > 10000 nM
OCI-M1 (acute myeloid leukaemia, suspension) | 0.666 | 160 nM | 0.199 | 55.8 nM | 0.995 | > 4000 nM | 0.506 | 130 nM | 0.991 | > 8000 nM | 0.994 | > 10000 nM
